Over roughly 16,000 sequences, “Z-score” has its median near -0.37; the highest 2% begin near 3.2. Some of the results follow.
test system: RBM10 RRM1-ZnF (GST-tagged construct); assay: RNAcompete 7-mer binding Z-score; higher = stronger binding preference
Description: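 RNAcompete: 20 pmol GST-tagged RBM10 RNA-binding constructs were incubated with a designed RNA pool of about 241,000 sequences up to 41 nt (1.5 nmol) on glutathione beads for 30 min at 4 °C and washed. Bound RNAs were identified by microarray hybridisation. Each RNA 7-mer is scored by a one-sided Z-score of its enrichment, computed over probes that contain the 7-mer within longer pool sequences.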

Row | Sequence | RNAcompete 7-mer binding Z-score
1 | UAUCCCA | -0.665
2 | CCAAGCC | -0.698
3 | UAAUCGC | -0.604
4 | AGCUACU | -0.61
5 | AGGAUCG | 0.462
6 | GCCAGUC | -0.412
7 | AUUAGCU | -0.503
8 | ACUGCAG | -0.0285
9 | CCUAGCA | -0.727
10 | AAGUUGG | 1.52
11 | UAAUGCG | -0.266
12 | GUCCCUU | -0.785
13 | GAACCCC | -0.327
14 | GGGACAC | 1.25
15 | AGUACAA | -0.158
16 | GACUGCG | -0.201
17 | UACAUAA | -0.519
18 | GGGGGGG | 3.4
19 | ACGAAAG | 0.579
20 | CCUACGU | -0.691
21 | UUUGAAA | -0.607
22 | CCUCAGC | -0.808
23 | CUACGCU | -0.672
24 | ACGUCGC | -0.522

Row | Sequence | RNAcompete 7-mer binding Z-score
25 | ACAUGUC | -0.578
26 | UUAAACU | -0.701
27 | GGCAGCU | 0.0203
28 | GUAUUGA | -0.142
29 | CGCGUAA | -0.246
30 | AACGGGG | 3.45
31 | CUCGCAU | -0.73
32 | CCGUUCU | -0.798
33 | GACGCGC | -0.431
34 | AGACGCA | -0.493
35 | GAAGCCU | -0.711
36 | CAGCAAU | -0.47
37 | CAACGUU | -0.62
38 | CAUGGUU | 0.654
39 | UUUGGUG | 1.2
40 | CUGUGUG | -0.149
41 | GCGAGGA | 1.93
42 | CGCGUUA | -0.532
43 | CGACAGC | -0.418
44 | CUACCCU | -0.681
45 | CAGUCGG | 0.345
46 | UCGCCGU | -0.73
47 | AGAAUUC | -0.574
48 | AAAAUAG | -0.0285

Row | Sequence | RNAcompete 7-mer binding Z-score
49 | UGAAUAU | -0.327
50 | CUAGUUG | -0.266
51 | GGUGAAG | 3.04
52 | GAUUUUU | -0.636
53 | CUAGCGU | -0.662
54 | CCACAGC | -0.591
55 | CCUCUCC | -0.555
56 | CUGUGGG | 1.64
57 | UAGUUUG | -0.0804
58 | GCUGCAG | 0.358
59 | GCUUACG | -0.483
60 | UUAAUUC | -0.759
61 | CGACGUG | 0.462
62 | GAGAGGU | 1.86
63 | CGCGCUU | -0.704
64 | GUCUGCA | -0.571
65 | GGAUCCC | 0.0333
66 | UCCAAGU | -0.652
67 | CAACGAG | -0.0382
68 | GCCUGAG | -0.269
69 | AUUAUUC | -0.759
70 | UGCGCGC | 0.3
71 | AGGCCAU | -0.503
72 | AAACCCU | -0.876

Row | Sequence | RNAcompete 7-mer binding Z-score
73 | AAACACU | -0.552
74 | AUGUACU | -0.311
75 | CCGCGAU | -0.698
76 | GGCGUAG | 1.29
77 | CCUCGUA | -0.782
78 | ACAAGGU | 1.65
79 | CUAUAGG | 0.358
80 | CGAACUA | -0.711
81 | UGGACAC | 1.06
82 | AGUUUAA | -0.435
83 | UAUCAGA | -0.428
84 | AGGCUCG | -0.233
85 | AAGGUAU | 2.13
86 | AAUAAGC | -0.37
87 | GGCCGGU | 0.202
88 | GAGUGUA | 0.972
89 | AGGGGCU | 1.35
90 | GCGUCGU | 0.069
91 | AAGUAAA | 0.043
92 | UACAAGU | -0.451
93 | AGUGCCG | -0.11
94 | UGAUGUA | 0.218
95 | GGUGUCC | 0.794
96 | ACUUAAC | -0.691

Row | Sequence | RNAcompete 7-mer binding Z-score
97 | CCUGUCG | -0.629
98 | UAGUCGC | -0.405
99 | AUCUCCU | -0.772
100 | CUAGCAG | -0.233
101 | CUGGACA | 0.0235
102 | UAAGGCA | 0.888
103 | CCUGCGA | -0.532
104 | ACUACUG | -0.428
105 | CAAGGGC | 1.02
106 | GGAGGGU | 3.97
107 | GUGGGAC | 2.35
108 | UACGGCC | -0.626
109 | ACUAAUU | -0.688
110 | CACGCGC | -0.366
111 | UGGCCGC | -0.126
112 | CACGAUA | -0.347
113 | AAGCGUA | 0.14
114 | GACGACG | 0.163
115 | CGCAUAU | -0.539
116 | CCGUUAA | -0.756
117 | GCUCACA | -0.386
118 | CCAUCAC | -0.727
119 | ACCCUUG | -0.779
120 | GACCAUG | -0.698

Row | Sequence | RNAcompete 7-mer binding Z-score
121 | ACGGCCC | -0.578
122 | UAACUAU | -0.617
123 | CGUCUAU | -0.675
124 | CCCCCUA | -0.409
125 | UCUUACC | -0.841
126 | AUUCGAC | -0.707
127 | ACAUGCA | -0.295
128 | CUGUACA | -0.539
129 | UAGACAU | -0.194
130 | GGCACGU | 0.566
131 | UAGAUGC | -0.318
132 | GACUCAG | -0.402
133 | UUCUAUG | -0.821
134 | GACUACU | -0.594
135 | GCAGGCG | 1.12
136 | GUUACUU | -0.487
137 | AGCUCAC | -0.772
138 | GGCGAAG | 1.96
139 | CAUCAGA | -0.513
140 | AAUCGGU | 0.439
141 | UCGGGUU | 1.12
142 | GGGGAGG | 3.64
143 | UUGUAAC | -0.649
144 | GUCUAUC | -0.454

Row | Sequence | RNAcompete 7-mer binding Z-score
145 | UAGGAUC | 0.524
146 | AAGUAUG | 0.667
147 | UUACGCU | -0.5
148 | AGAUUUC | -0.717
149 | GGGGACC | 1.85
150 | AUCUUUC | -0.893
151 | AGUAACC | -0.438
152 | UCAGUCA | -0.49
153 | GUGGCUC | 0.345
154 | UCAAAGG | 0.391
155 | AUUGACC | -0.617
156 | CCAUAAU | -0.928
157 | UCAGCAA | -0.363
158 | AGUGGCC | 0.0268
159 | ACUACAU | -0.711
160 | UUGACGC | -0.422
161 | GCUGGGA | 2.03
162 | GUUAAGG | 2.1
163 | GUGGUGA | 2.14
164 | AUCGCCA | -0.717
165 | CACACGC | -0.318
166 | GAUGGGG | 4.43
167 | AUUGCAU | -0.451
168 | UUCACAU | -0.698

Row | Sequence | RNAcompete 7-mer binding Z-score
169 | AUUCGUC | -0.737
170 | GGGACCG | 1.27
171 | ACUGGGU | 2.06
172 | AAAGGCC | -0.035
173 | AUAAUAU | -0.451
174 | CAGGCAA | 0.212
175 | UCAACGA | -0.617
176 | UCAGCGC | -0.425
177 | GCUCUAG | -0.464
178 | GGUUACU | 0.277
179 | ACCGCUA | -0.724
180 | UCUGUGC | -0.714
181 | GGCGUUG | 0.657
182 | AGUGAUC | -0.116
183 | AUGAAUC | -0.21
184 | GGUUAAU | 1.31
185 | CAGUGGC | 0.417
186 | UUAGCAA | -0.402
187 | GAUGUAA | 0.413
188 | AGGCACU | -0.123
189 | CUCUGCC | -0.759
190 | CAAGAAA | -0.266
191 | UGGCGGG | 3.47
192 | UCUCCAU | -0.834

Row | Sequence | RNAcompete 7-mer binding Z-score
193 | ACCCCUG | -0.561
194 | GCAAGCA | -0.35
195 | CCCAAAU | -0.798
196 | UGGCUAA | 0.244
197 | GUUAGGG | 3.73
198 | UCCCUAC | -0.837
199 | UACCGAU | -0.581
200 | UCGACAC | -0.565
201 | UACAAAC | -0.568
202 | UCAAAAA | -0.561
203 | UGGAUCA | 0.641
204 | GGGCCCC | 0.443
205 | CUUAGCU | -0.652
206 | CCUGGAU | -0.487
207 | GGCUUUC | -0.513
208 | UACGUGG | 1
209 | GUUACUC | -0.548
210 | UCUUAUG | -0.714
211 | AUGUCCG | -0.626
212 | CAGAGUU | -0.168
213 | UGCGUAU | -0.363
214 | AAUAUAG | 0.0235
215 | GCCCAGG | 0.179
216 | UAUUACA | -0.516

Row | Sequence | RNAcompete 7-mer binding Z-score
217 | GAAAUCG | 0.03
218 | UGAUCCC | -0.503
219 | GAGCCAA | -0.363
220 | CACACGA | -0.539
221 | AACAUGG | 1.13
222 | UAUGAUC | -0.516
223 | CGGGCCA | -0.194
224 | GGUGGAU | 2.75
225 | CUGGAUC | -0.311
226 | ACCAUCU | -0.841
227 | GACAAAC | -0.558
228 | CACAUCC | -0.681
229 | CAUGACA | -0.412
230 | AAACAAA | -0.204
231 | UUAUCGA | -0.223
232 | UCCGCUA | -0.691
233 | AAUCUUC | -0.743
234 | AAAGAUG | 0.761
